Source: EP4563146A1 (IRBM S.P.A., priority 2023, dated 2025)

Each compound was assayed against ZIKV NS2B-G4SG4-NS3 serine protease (Zika virus, UniProt A0A024B7W1, R1467A/R1531G) (assay: ZIKV protease inhibition assay). Details: not given.
Format: biochemical

SMILES | IC50
CN(C)C[C@H]1CC[C@H]([n+]2cc([N-]C(=O)Nc3cc(NC(=O)C(F)(F)CN4CCCC4)cc(C(F)(F)F)c3)on2)CC1 [Example 160, ((3-(2,2-Difluoro-3-(pyrrolidin-1-yl)propanamido)-5-(trifluoromethyl)phenyl)-carbamoyl)(3-((1R,4R)-4-((dimethylamino)-methyl)cyclohexyl)-1,2,3-oxadiazol-3-ium-5-yl)amide] | 1 to 20 µM
CN(C)C[C@H]1CC[C@H]([n+]2cc([N-]C(=O)Nc3cc(NC(=O)Cc4cn(C)c5ccccc45)cc(C(F)(F)F)c3)on2)CC1 [Example 161, (3-((1R,4R)-4-((dimethylamino)methyl)-cyclohexyl)-1,2,3-oxadiazol-3-ium-5-yl)((3-(2-(1-methyl-1H-indol-3-yl)acetamido)-5-(trifluoromethyl)phenyl)carbamoyl)amide] | 1 to 20 µM
CN(C)C[C@H]1CC[C@H]([n+]2cc([N-]C(=O)Nc3cc(NC(=O)Cc4cccc(CC(N)=O)c4)cc(C(F)(F)F)c3)on2)CC1 [Example 162, ((3-(2-(3-(2-Amino-2-oxoethyl)phenyl)-acetamido)-5-(trifluoromethyl)phenyl)-carbamoyl)(3-((1R,4R)-4-((dimethylamino)-methyl)cyclohexyl)-1,2,3-oxadiazol-3-ium-5-yl)amide] | 0.1 to 1 µM
CC(C(=O)Nc1cc(NC(=O)[N-]c2c[n+]([C@H]3CC[C@H](CN(C)C)CC3)no2)cc(C(F)(F)F)c1)c1ccccc1 (stereo partly drawn) [Example 164, (3-((1R,4R)-4-((Dimethylamino)methyl)-cyclohexyl)-1,2,3-oxadiazol-3-ium-5-yl)((3-(2-phenylpropanamido)-5-(trifluoromethyl)phenyl)-carbamoyl)amide] | < 0.1 µM
CN(C)C[C@H]1CC[C@H]([n+]2cc([N-]C(=O)Nc3cc(NC(=O)Cc4ccccc4C(F)(F)F)cc(C(F)(F)F)c3)on2)CC1 [Example 166, (3-((1R,4R)-4-((Dimethylamino)methyl)-cyclohexyl)-1,2,3-oxadiazol-3-ium-5-yl)((3-(trifluoromethyl)-5-(2-(2-(trifluoromethyl)-phenyl)acetamido)phenyl)carbamoyl)amide] | 0.1 to 1 µM
CC(C(=O)N(C)c1cc(NC(=O)[N-]c2c[n+]([C@H]3CC[C@H](CN(C)C)CC3)no2)cc(C(F)(F)F)c1)c1ccccc1 (stereo partly drawn) [Example 167, (3-((1R,4R)-4-((Dimethylamino)methyl)-cyclohexyl)-1,2,3-oxadiazol-3-ium-5-yl)((3-(N-methyl-2-phenylpropanamido)-5-(trifluoromethyl)phenyl)carbamoyl)amide] | 1 to 20 µM
CN(C)C[C@H]1CC[C@H]([n+]2cc([N-]C(=O)Nc3cc(NC(=O)Cc4cccc(F)c4F)cc(C(F)(F)F)c3)on2)CC1 [Example 169, ((3-(2-(2,3-Difluorophenyl)acetamido)-5-(trifluoromethyl)phenyl)carbamoyl)(3-((1R,4R)-4-((dimethylamino)methyl)cyclohexyl)-1,2,3-oxadiazol-3-ium-5-yl)amide] | < 0.1 µM
C[C@H](C(=O)Nc1cc(NC(=O)[N-]c2c[n+]([C@H]3CC[C@H](CN(C)C)CC3)no2)cc(C(F)(F)F)c1)c1ccccc1 [Example 170, (3-((1R,4S)-4-((Dimethylamino)methyl)-cyclohexyl)-1,2,3-oxadiazol-3-ium-5-yl)((3-((S)-2-phenylpropanamido)-5-(trifluoromethyl)-phenyl)carbamoyl)amide] | < 0.1 µM
CN(C)C[C@H]1CC[C@H]([n+]2cc([N-]C(=O)Nc3cc(N(C)C(=O)Cc4ccccc4)cc(C(F)(F)F)c3)on2)CC1 [Example 172, (3-((1R,4R)-4-((Dimethylamino)methyl)-cyclohexyl)-1,2,3-oxadiazol-3-ium-5-yl)((3-(N-methyl-2-phenylacetamido)-5-(trifluoromethyl)-phenyl)carbamoyl)amide] | 1 to 20 µM
C[C@@H](C(=O)Nc1cc(NC(=O)[N-]c2c[n+]([C@H]3CC[C@H](CN(C)C)CC3)no2)cc(C(F)(F)F)c1)c1ccccc1 [Example 175, (3-((1R,4R)-4-((Dimethylamino)methyl)-cyclohexyl)-1,2,3-oxadiazol-3-ium-5-yl)((3-((R)-2-phenylpropanamido)-5-(trifluoromethyl)-phenyl)carbamoyl)amide] | 0.1 to 1 µM
CN(C)C[C@H]1CC[C@H]([n+]2cc([N-]C(=O)Nc3cc(NC(=O)Cc4cccc(Cl)c4)cc(C(F)(F)F)c3)on2)CC1 [Example 176, ((3-(2-(3-Chlorophenyl)acetamido)-5-(trifluoromethyl)phenyl)carbamoyl)(3-((1R,4R)-4-((dimethylamino)methyl)cyclohexyl)-1,2,3-oxadiazol-3-ium-5-yl)amide] | 0.1 to 1 µM
O=C([N-]c1c[n+](C[C@H]2CC[C@@H](c3cncnc3)CC2)no1)Nc1cccc(C(F)(F)F)c1 [Example 179, (3-(((1S,4S)-4-(Pyrimidin-5-yl)cyclohexyl)-methyl)-1,2,3-oxadiazol-3-ium-5-yl)((3-(trifluoromethyl)phenyl)carbamoyl)amide] | 1 to 20 µM
O=C([N-]c1c[n+](C[C@H]2CC[C@@H](c3cncnc3)CC2)no1)Nc1ccnc(C(F)(F)F)c1 [Example 182, (3-(((1S,4S)-4-(Pyrimidin-5-yl)cyclohexyl)methyl)-1,2,3-oxadiazol-3-ium-5-yl)((2-(trifluoromethyl)pyridin-4-yl)carbamoyl)amide] | 1 to 20 µM
O=C([N-]c1c[n+](C[C@H]2CC[C@H](c3cncnc3)CC2)no1)Nc1cccc(C(F)(F)F)c1 [Example 186, (3-(((1R,4R)-4-(Pyrimidin-5-yl)cyclohexyl)methyl)-1,2,3-oxadiazol-3-ium-5-yl)((3-(trifluoromethyl)phenyl)carbamoyl)amide] | 0.1 to 1 µM
O=C([N-]c1c[n+](C[C@H]2CC[C@H](c3cncnc3)CC2)no1)Nc1ccnc(C(F)(F)F)c1 [Example 187, (3-(((1R,4R)-4-(Pyrimidin-5-yl)cyclohexyl)-methyl)-1,2,3-oxadiazol-3-ium-5-yl)((2-(trifluoromethyl)pyridin-4-yl)carbamoyl)amide] | 0.1 to 1 µM
CN(C)C[C@H]1CC[C@H]([n+]2cc([N-]C(=O)Nc3cc(NC(=O)Cc4ccccc4O)cc(C(F)(F)F)c3)on2)CC1 [Example 191, (3-((1R,4R)-4-((Dimethylamino)methyl)-cyclohexyl)-1,2,3-oxadiazol-3-ium-5-yl)((3-(2-(2-hydroxyphenyl)acetamido)-5-(trifluoromethyl)-phenyl)carbamoyl)amide] | < 0.1 µM
CN(C)C[C@H]1CC[C@H]([n+]2cc([N-]C(=O)Nc3cc(NC(=O)Cc4ccccc4Cl)nc(C(F)(F)F)c3)on2)CC1 [Example 193, ((2-(2-(2-Chlorophenyl)acetamido)-6-(trifluoromethyl)pyridin-4-yl)carbamoyl)(3-((1R,4R)-4-((dimethylamino)methyl)-cyclohexyl)-1,2,3-oxadiazol-3-ium-5-yl)amide] | 0.1 to 1 µM
CN(C)C[C@H]1CC[C@H]([n+]2cc([N-]C(=O)Nc3cc(NC(=O)C(F)c4ccccc4F)cc(C(F)(F)F)c3)on2)CC1 (stereo partly drawn) [Example 194, (3-((1R,4R)-4-((Dimethylamino)methyl)-cyclohexyl)-1,2,3-oxadiazol-3-ium-5-yl)((3-(2-fluoro-2-(2-fluorophenyl)acetamido)-5-(trifluoromethyl)phenyl)carbamoyl)amide] | < 0.1 µM
CN(C)C[C@H]1CC[C@H]([n+]2cc([N-]C(=O)Nc3cc(NC(=O)C4Cc5ccccc54)cc(C(F)(F)F)c3)on2)CC1 (some centres unmarked) [Example 195] | 0.1 to 1 µM
CN(C)C[C@H]1CC[C@H]([n+]2cc([N-]C(=O)Nc3cc(NC(=O)Cc4cccc(O)n4)cc(C(F)(F)F)c3)on2)CC1 [Example 196, (3-((1R,4R)-4-((Dimethylamino)methyl)-cyclohexyl)-1,2,3-oxadiazol-3-ium-5-yl)((3-(2-(6-hydroxypyridin-2-yl)acetamido)-5-(trifluoromethyl)phenyl)carbamoyl)amide] | 1 to 20 µM
Cc1noc(C)c1CC(=O)Nc1cc(NC(=O)[N-]c2c[n+]([C@H]3CC[C@H](CN(C)C)CC3)no2)cc(C(F)(F)F)c1 [Example 197, (3-((1R,4R)-4-((Dimethylamino)methyl)-cyclohexyl)-1,2,3-oxadiazol-3-ium-5-yl)((3-(2-(3,5-dimethylisoxazol-4-yl)acetamido)-5-(trifluoromethyl)phenyl)carbamoyl)amide] | 0.1 to 1 µM

Same assay, conditions: 1.25 nM enzyme, 10 µM Bz-Nle-KRR-AMC substrate, 25 °C; read-out: Zika - NS3 protease

SMILES | IC50
CN(C)C[C@H]1CC[C@H]([n+]2cc([N-]C(=O)Nc3cc(NC(=O)Cc4cccc(CN)c4)cc(C(F)(F)F)c3)on2)CC1 [Example 163, ((3-(2-(3-(Aminomethyl)phenyl)acetamido)-5-(trifluoromethyl)phenyl)carbamoyl)(3-((1R,4R)-4-((dimethylamino)methyl)cyclohexyl)-1,2,3-oxadiazol-3-ium-5-yl)amide] | 0.1 to 1 µM
CCC(C(=O)Nc1cc(NC(=O)[N-]c2c[n+]([C@H]3CC[C@H](CN(C)C)CC3)no2)cc(C(F)(F)F)c1)c1ccccc1 (stereo partly drawn) [Example 165, (3-((1R,4R)-4-((Dimethylamino)methyl)-cyclohexyl)-1,2,3-oxadiazol-3-ium-5-yl)((3-(2-phenylbutanamido)-5-(trifluoromethyl)phenyl)-carbamoyl)amide] | < 0.1 µM
CN(C)C[C@H]1CC[C@H]([n+]2cc([N-]C(=O)Nc3cc(NC(=O)Cc4ccccc4Cl)cc(C(F)(F)F)c3)on2)CC1 [Example 168, ((3-(2-(2-Chlorophenyl)acetamido)-5-(trifluoromethyl)phenyl)carbamoyl)(3-((1R,4R)-4-((dimethylamino)methyl)cyclohexyl)-1,2,3-oxadiazol-3-ium-5-yl)amide] | < 0.1 µM
Cc1ccccc1CC(=O)Nc1cc(NC(=O)[N-]c2c[n+]([C@H]3CC[C@H](CN(C)C)CC3)no2)cc(C(F)(F)F)c1 [Example 171, (3-((1R,4R)-4-((Dimethylamino)methyl)-cyclohexyl)-1,2,3-oxadiazol-3-ium-5-yl)((3-(2-(o-tolyl)acetamido)-5-(trifluoromethyl)phenyl)-carbamoyl)amide] | < 0.1 µM
CN(C)C[C@H]1CC[C@H]([n+]2cc([N-]C(=O)Nc3cc(NC(=O)C4CCCc5ccccc54)cc(C(F)(F)F)c3)on2)CC1 (stereo partly drawn) [Example 177, (3-((1R,4R)-4-((Dimethylamino)methyl)-cyclohexyl)-1,2,3-oxadiazol-3-ium-5-yl)((3-(1,2,3,4-tetrahydronaphthalene-1-carboxamido)-5-(trifluoromethyl)phenyl)carbamoyl)amide] | 0.1 to 1 µM
